Test results reported in patent publication US20050152899A1, “EphA2 agonistic monoclonal antibodies and methods of use thereof” (priority 2002, published 2005).

Columns and labels:
[1] = biological target: T1, EphA2-Ephrin A1-Fc complex (Homo sapiens, UniProt P29317); assay: Binding to EphA2-Ephrin A1-Fc complex on microtiter plate; conditions: EphA2-Fc bound to immobilized Ephrin A1-Fc
T1 construct: consisting of the extracellular domain of EphA2 linked to human IgG1 constant region
Procedure: (§1) A microtiter plate was coated with […] Ephrin A1-Fc overnight at 4° C. A fusion protein consisting of the extracellular domain of EphA2 linked to human IgG1 constant region (EphA2-Fc) was incubated with and bound to the immobilized Ephrin A1-Fc. Biotinylated Ephrin A1-Fc or EA5 was incubated with the EphA2-Ephrin A1-Fc complex and amount of binding was measured.

[2] = biological target: T1, EphA2-Ephrin A1-Fc complex; assay: Competition for labeled EA5 on EphA2-Ephrin A1-Fc complex; format: binding; conditions: biotinylated EA5 10 μg/ml, 30 min.
Procedure: as §1
The EphA2-Ephrin A1-Fc complex was prepared as described above. Biotinylated EA5 (10 μg/ml) was then incubated with the complex for 30 min. Unlabeled competitor was incubated with EphA2-Ephrin A1-Fc-EA5 complex in the indicated amount. Unlabeled EA5 could displace the labeled EA5 at concentrations of 100 ng/ml or greater.

[3] = system: A549 lung cancer cells; assay: Tumor growth in vivo, A549 cells implanted into athymic mice; conditions: 6 mg/kg intraperitoneally twice a week for 3 weeks, vs negative control
Procedure: EA5 can inhibit tumor cell growth in vivo. 5×10^6 MDA-MB-231 breast cancer cells were implanted orthotopically or subcutaneously and 5×10^6 A549 lung cancer cells were implanted subcutaneously into athymic mice. After the tumors had grown to an average volume of 100 mm^3, mice were administered 6 mg/kg of an EA5 or negative control (PBS or 1A7 antibody) intraperitoneally twice a week for 3 weeks. Animals were generally sacrificed at least two weeks after the last treatment or when tumors exceeded 2000 mm^3. Tumor growth was assessed and expressed either as a ratio of the tumor volume divided by initial tumor volume (100 mm^3) or as total tumor volume.

[4] = system: control MCF-7 cells; assay: Colony formation in soft agar, control MCF-7 cells; format: cell-based; conditions: tamoxifen 1 μM, EA5 10 μg/ml
Procedure: (§2) Tumor cells were suspended in soft agar. Colony formation in soft agar was assayed as described in Zelinski et al. (2001, Cancer Res. 61: 2301-6). Antibodies or a control solution (PBS) was included in bottom and top agar solutions. […] Colony formation was scored microscopically using an Olympus CK-3 inverted phase-contrast microscope outfitted with a 40× objective. Clusters containing at least three cells were scored as a positive. The average number of colonies per high-powered field is shown. Ten separate high-power microscopic fields were averaged in each experiment, and the results shown are representative of at least three separate experiments.
(§3) Growth assays were conducted as follows. MCF-7^neo (control cells) or MCF7^EphA2 cells were seeded in 96-well plates. […] Colony formation in soft agar was performed as previously described (Zelinski et al., 2001, Cancer Res. 61: 2301-6) and scored microscopically, defining clusters of at least three cells as a positive. The data represent the average of ten separate high-power microscopic fields from each sample and representative of at least three separate experiments. Error bars represent the standard error of the mean of at least three different experiments as determined using Microsoft Excel software.
Sensitivity of MCF-7^EphA2 cells to tamoxifen was measured. […]

[5] = system: malignant prostate cancer cells; assay: Immunoreactivity on formalin-fixed, paraffin-embedded archival clinical specimens; format: binding
Source text: (§4) The epitope of the EphA2 antibodies were characterized. EA5 and EA2 selectively bind to malignant cells. The anti-EphA2 monoclonal antibodies EA5 and EA2 bind malignant MDA-MB-231 breast epithelial tumor cells (FIGS. 11A-11B) more strongly than benign MCF-10A breast epithelial tumor cells (FIGS. 11C-11D) as shown by immunofluorescent staining. […] The anti-EphA2 monoclonal antibody EA5 identified malignant prostate cancer cells in formalin-fixed, paraffin-embedded archival clinical specimens (FIG. 12).

[6] = biological target: T2, EphA2 (Homo sapiens, UniProt P29317); assay: Immunofluorescent staining of MDA-MB-231 and MCF-10A cells; format: binding; set-up: endogenous in cells; host or cells: MDA-MB-231; MCF-10A
Source text: as §4
EA5 preferentially binds an EphA2 epitope exposed on cancer cells but not non-cancer cells. Non-transformed MCF-10A cells or transformed MDA-MB-231 cells were incubated with 10 μg/ml EA2 at 4° C. for 30 min. prior to fixation in a 3% formalin solution and immunolabeling with fluorophore-conjugated anti-mouse IgG.

[7] = biological target: T2, EphA2; assay: EphA2 tyrosine phosphorylation and degradation in A549 cells (immunoprecipitation / western blot); format: cell-based; set-up: endogenous in cells; conditions: A549 monolayers
Procedure: Western blot analyses and immunoprecipitations were performed as described previously (Zantek et al., 1999, Cell Growth Diff. 10: 629-38). Briefly, detergent extracts of cell monolayers were extracted in Tris-buffered saline containing 1% Triton X-100 (Sigma, St. Louis, Mo.). After measuring protein concentrations (BioRad, Hercules, Calif.), 1.5 mg of cell lysate was immunoprecipitated, resolved by SDS-PAGE and transferred to nitrocellulose (Protran, Schleicher and Schuell, Keene, N.H.). Antibody binding was detected by enhanced chemiluminescence (Pierce, Rockford, Ill.) and autoradiography (Kodak X-OMAT; Rochester, N.Y.).
Similar experiments were conducted with A549 cells. Monolayers of A549 cells were incubated at 37° C. in the presence of EA5 or EA2 or control (PBS) for either 10 minutes (FIGS. 2A-2B) or 5 hours (FIGS. 2C-2D). Cell lysates were then immunoprecipitated with an EphA2-specific antibody (D7), resolved by SDS-PAGE and subjected to western blot analysis with a phosphotyrosine-specific antibody (4G10, purchased from Upstate Biologicals, Inc., Lake Placid, N.Y.) (FIGS. 2A, 2C). The membranes were stripped and re-probed with the EphA2-specific antibody used in the immunoprecipitation (D7) as a loading control (FIGS. 2B, 2D). […] (FIG. 2D).

[8] = system: MCF-7^EphA2 cells; assay: Colony formation in soft agar, MCF-7^EphA2 cells; format: cell-based
Procedure: as §2
A549 malignant lung cancer cells were incubated with either 10 μg/ml or 2.5 μg/ml of EA5 or EA2 monoclonal antibodies or a control (PBS). […] Benign MCF-7 breast epithelial tumor cells were converted to malignant cells by the overexpression of EphA2 (MCF-7^EphA2). Both tumor cell types were incubated with either EA5 monoclonal antibodies or a control (PBS). […] Results are reported as colonies per high-powered field (HPF).
as §3
Sensitivity of MCF-7^EphA2 cells to tamoxifen was measured.
Growth MCF-7^EphA2 cells which had decreased EphA2 expression levels was assayed in soft agar.

T2 sequence (P29317 24-976): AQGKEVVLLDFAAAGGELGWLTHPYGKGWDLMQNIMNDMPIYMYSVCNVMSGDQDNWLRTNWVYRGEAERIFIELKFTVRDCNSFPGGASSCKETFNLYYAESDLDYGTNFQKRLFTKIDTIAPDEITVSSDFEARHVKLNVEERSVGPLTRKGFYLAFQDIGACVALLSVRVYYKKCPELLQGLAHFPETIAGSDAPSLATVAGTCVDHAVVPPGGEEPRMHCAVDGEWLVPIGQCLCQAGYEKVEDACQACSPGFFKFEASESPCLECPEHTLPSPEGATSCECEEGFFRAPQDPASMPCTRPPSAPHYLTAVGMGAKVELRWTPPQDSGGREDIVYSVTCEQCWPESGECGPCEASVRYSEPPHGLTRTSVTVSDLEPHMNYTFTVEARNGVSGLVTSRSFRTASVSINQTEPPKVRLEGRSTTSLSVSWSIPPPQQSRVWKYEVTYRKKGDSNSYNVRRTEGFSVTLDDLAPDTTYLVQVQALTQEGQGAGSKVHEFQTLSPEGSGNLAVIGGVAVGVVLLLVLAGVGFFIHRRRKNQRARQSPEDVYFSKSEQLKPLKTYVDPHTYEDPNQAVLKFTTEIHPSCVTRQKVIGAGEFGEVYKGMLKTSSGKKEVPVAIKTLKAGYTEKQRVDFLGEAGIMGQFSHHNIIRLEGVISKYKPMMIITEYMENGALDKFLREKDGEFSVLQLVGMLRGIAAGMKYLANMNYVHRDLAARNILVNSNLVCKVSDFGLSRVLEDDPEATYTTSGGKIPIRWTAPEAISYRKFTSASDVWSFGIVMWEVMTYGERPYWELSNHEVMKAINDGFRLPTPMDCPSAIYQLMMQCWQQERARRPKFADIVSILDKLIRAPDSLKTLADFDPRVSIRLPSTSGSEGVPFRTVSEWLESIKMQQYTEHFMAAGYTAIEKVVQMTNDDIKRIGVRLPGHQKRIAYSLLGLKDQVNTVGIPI
T1 sequence (P29317 24-537 limits assumed): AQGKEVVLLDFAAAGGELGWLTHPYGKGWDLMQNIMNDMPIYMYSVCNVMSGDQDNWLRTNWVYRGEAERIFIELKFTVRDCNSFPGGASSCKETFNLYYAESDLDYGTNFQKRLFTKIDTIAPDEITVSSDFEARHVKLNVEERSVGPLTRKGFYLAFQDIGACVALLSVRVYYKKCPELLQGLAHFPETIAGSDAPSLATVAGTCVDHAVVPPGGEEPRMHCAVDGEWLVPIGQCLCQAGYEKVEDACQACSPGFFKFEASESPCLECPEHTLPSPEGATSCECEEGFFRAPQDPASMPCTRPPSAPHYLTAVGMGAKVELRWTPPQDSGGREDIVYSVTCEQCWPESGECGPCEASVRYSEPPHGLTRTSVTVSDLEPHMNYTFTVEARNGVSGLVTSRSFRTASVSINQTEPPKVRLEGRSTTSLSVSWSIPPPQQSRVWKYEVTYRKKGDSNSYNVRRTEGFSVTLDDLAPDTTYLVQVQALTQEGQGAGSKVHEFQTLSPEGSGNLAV
T1 sequence (P20827 19-182 partner limits assumed): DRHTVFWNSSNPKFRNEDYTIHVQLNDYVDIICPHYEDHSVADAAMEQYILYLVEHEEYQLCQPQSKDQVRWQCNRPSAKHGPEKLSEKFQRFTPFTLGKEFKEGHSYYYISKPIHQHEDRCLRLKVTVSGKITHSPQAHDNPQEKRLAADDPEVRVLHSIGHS

B1: EA5: EphA2 agonistic monoclonal antibody; hybridoma strain EA5.12, ATCC PTA-4381; VL SEQ ID NO:17, VH SEQ ID NO:21 (antibody, listed as Home sapiens, V domains shown)
VH: EVQLQQSGPELVKTGASVKISCKASGYSFTGYYMHWVKQSHGKSLEWIGYISCYNGVTSYNQKFKGKATFTVDTSSSTAYMQFNSLTSEDSAVYYCARSHAMDYWGQGTSVTVSS
VL: DVVMTQTPLTLSVTIGQPASISCKSSQSLLYSNGKTYLNWLLQRPGQSPKRLIYLVSKLDSGVPDRFTGSGSGTDFTLKISRVEAEDLGVYYCVQGSHFPWTFGGGTKLEIK
modifications: EA5.12 Heavy chain variable region; EA5.12 Light chain variable region
In the case of B1, the “Amount of biotinylated protein bound to EphA2-Ephrin A1-Fc complex” value [1] is reported as “considerable levels of EA5 bound”, the “Concentration of unlabeled competitor that displaces labeled EA5” value [2] is reported as no less than 100 ng/mL and the “Tumor growth, cells implanted subcutaneously” value [3] is reported as “inhibited”. For the same molecule, the “Effect of EA5 on tamoxifen response of soft agar colonization” value [4] was “did not further alter this response”, the “Immunoreactivity against prostate cells” value [5] was “immunoreactive against malignant prostate cells” and the “Binding to EphA2 on transformed MDA-MB-231 vs non-transformed MCF-10A cells” value ([6]; 10 μg/ml, 4° C., 30 min., before fixation) was “preferentially binds EphA2 on transformed cells”. The “Binding to EphA2 on MCF-10A cells with or without EGTA” value ([6]; 4 mM EGTA for 20 min., immunofluorescence) was “bound EphA2 on the EGTA dissociated cells but not the untreated cells”, the “Binding to malignant MDA-MB-231 vs benign MCF-10A cells” value ([6]; immunofluorescent staining) was “more strongly” and the EphA2 phosphorylation ([7]; 10 minutes at 37° C.) was “increase in phosphorylation”. For the same molecule, the EphA2 protein degradation ([7]; 5 hours at 37° C.) was “degradation of the EphA2 protein”, the “Ability to grow in soft agar (colonies per high-powered field)” value ([8]; 7 days at 37° C., vs PBS) was “inhibits the ability of MCF-7^EphA2 cells to grow in soft agar” and the “Decrease in soft agar colonization” value ([8]; MCF-7^EphA2 cells, tamoxifen 1 μM and/or EA5 10 μg/ml (FIG. 10C)) was 19%. For the same molecule, the “Sensitivity of MCF-7^EphA2 cells to tamoxifen” value ([8]; soft agar, tamoxifen 1 μM, EA5 10 μg/ml) was “increased the sensitivity”.
